In the RNAGym collection of RNA variant scans (doi:10.1073/pnas.2313332121):
Variants at the background level are over-represented here.

B1: TPR 5TU (parent)
chain: GGAUCUUCUCGAUCUAACAAAAAAGACAAAUCUGCCACAAAGCUUGAGAGCAUCUUCGGAUGCAGAGGCGGCAGCCUUCGGUGGCGCGAUAGCGCCAACGUUCUCAACUAUGACACGCAAAACGCGUGCUCCGUUGAAUGGAGUUUAUCAUG

Variants of: B1
Assay: polymerase ribozyme fitness, log enrichment relative to wild type (log ratio); higher = more active; in vitro selection for triplet polymerase activity
Summary of the method: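 A heterodimeric triplet polymerase ribozyme had each of its subunits mutagenized by PCR into a library, which was transcribed. One round of in vitro selection, done in triplicate, annealed each library with a biotinylated primer, its partner subunit and triplets, then incubated it frozen at −7 °C before gel excision of extended constructs, streptavidin-bead capture and RT-PCR. Fitness is the logarithm of genotype enrichment relative to wild-type enrichment, based on Illumina sequencing of inputs and outputs and inverse-variance-weighted replicate averages. A base-2 logarithm is used, and genotypes were kept only with ≥10 input reads and ≥1 read per output.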

Question: With A49U C93A C95A C129A as the variant, how does the “polymerase ribozyme fitness (log ratio)” value read?
Answer: ≤ -4.2

Question: Which “polymerase ribozyme fitness (log ratio)” value does the source give for A49U C93A C99A here?
Answer: ≤ -4.2

Question: Which “polymerase ribozyme fitness (log ratio)” value does the source give for A49U C93U here?
Answer: -1.38

Question: For A49U C93U G100U C116U, which “polymerase ribozyme fitness (log ratio)” value is on record?
Answer: ≤ -4.2

Question: Which “polymerase ribozyme fitness (log ratio)” value does the source give for A49U C96A here?
Answer: -3.45

Question: With A49U C99G C108G as the variant, how does the “polymerase ribozyme fitness (log ratio)” value read?
Answer: ≤ -4.2

Question: With A49U C108U as the variant, how does the “polymerase ribozyme fitness (log ratio)” value read?
Answer: ≤ -4.2

Question: With A49U G50A as the variant, how does the “polymerase ribozyme fitness (log ratio)” value read?
Answer: -0.047

Question: Which “polymerase ribozyme fitness (log ratio)” value does the source give for A49U G50A A66G C76G U145C here?
Answer: ≤ -4.2

Question: With A49U G50A C85G C116G A121U as the variant, how does the “polymerase ribozyme fitness (log ratio)” value read?
Answer: -1.16

Question: With A49U G58C as the variant, how does the “polymerase ribozyme fitness (log ratio)” value read?
Answer: -0.846

Question: With A49U G58C A66G G80U C85A C87A C108G G128U C149U as the variant, how does the “polymerase ribozyme fitness (log ratio)” value read?
Answer: ≤ -4.2

Question: For A49U G58C G124U, which “polymerase ribozyme fitness (log ratio)” value is on record?
Answer: -1.3

Question: With A49U G59A A122U as the variant, how does the “polymerase ribozyme fitness (log ratio)” value read?
Answer: -0.783

Question: With A49U G62C A66C G67U C96A C99G U134C U145C A147C U151G as the variant, how does the “polymerase ribozyme fitness (log ratio)” value read?
Answer: ≤ -4.2

Question: Which “polymerase ribozyme fitness (log ratio)” value does the source give for A49U G67A C95U C114G A142C here?
Answer: ≤ -4.2

Question: Which “polymerase ribozyme fitness (log ratio)” value does the source give for A49U G71C C85A here?
Answer: ≤ -4.2

Question: Which “polymerase ribozyme fitness (log ratio)” value does the source give for A49U G80A here?
Answer: -3.76

Question: With A49U G81A C93U U151G as the variant, how does the “polymerase ribozyme fitness (log ratio)” value read?
Answer: ≤ -4.2

Question: With A49U G81C A91G C103U U109G as the variant, how does the “polymerase ribozyme fitness (log ratio)” value read?
Answer: ≤ -4.2

Question: For A49U G83A U145A, which “polymerase ribozyme fitness (log ratio)” value is on record?
Answer: -1.1

Question: With A49U G84A G94U G136U as the variant, how does the “polymerase ribozyme fitness (log ratio)” value read?
Answer: ≤ -4.2

Question: For A49U G84U A97C G126C A138G A150G, which “polymerase ribozyme fitness (log ratio)” value is on record?
Answer: ≤ -4.2

Question: Which “polymerase ribozyme fitness (log ratio)” value does the source give for A49U G88A A113C G140A here?
Answer: ≤ -4.2

Question: With A49U G136A G141A as the variant, how does the “polymerase ribozyme fitness (log ratio)” value read?
Answer: -0.805

Question: For A49U G141A A147G, which “polymerase ribozyme fitness (log ratio)” value is on record?
Answer: ≤ -4.2

Question: Which “polymerase ribozyme fitness (log ratio)” value does the source give for A49U U53A G67U G68A C95A U144C here?
Answer: ≤ -4.2

Question: With A49U U53A G68U C87U as the variant, how does the “polymerase ribozyme fitness (log ratio)” value read?
Answer: ≤ -4.2

Question: With A49U U53C A98U U148C as the variant, how does the “polymerase ribozyme fitness (log ratio)” value read?
Answer: ≤ -4.2

Question: For A49U U55A A106G, which “polymerase ribozyme fitness (log ratio)” value is on record?
Answer: -0.994

Question: Which “polymerase ribozyme fitness (log ratio)” value does the source give for A49U U55A C76A G83A here?
Answer: ≤ -4.2

Question: Which “polymerase ribozyme fitness (log ratio)” value does the source give for A49U U55A G62U A73G G86C here?
Answer: ≤ -4.2

Question: Which “polymerase ribozyme fitness (log ratio)” value does the source give for A49U U55A U56G here?
Answer: -1.76

Question: For A49U U55A U139A G140A, which “polymerase ribozyme fitness (log ratio)” value is on record?
Answer: ≤ -4.2

Question: For A49U U55C U56A A73U C93U G117C, which “polymerase ribozyme fitness (log ratio)” value is on record?
Answer: ≤ -4.2

Question: Which “polymerase ribozyme fitness (log ratio)” value does the source give for A49U U55G G58A C123A G126U U148A here?
Answer: ≤ -4.2

Question: For A49U U56A U144G U148G, which “polymerase ribozyme fitness (log ratio)” value is on record?
Answer: ≤ -4.2

Question: Which “polymerase ribozyme fitness (log ratio)” value does the source give for A49U U61A C87A G140C here?
Answer: ≤ -4.2

Question: Which “polymerase ribozyme fitness (log ratio)” value does the source give for A49U U61A C95A A107G here?
Answer: ≤ -4.2

Question: Which “polymerase ribozyme fitness (log ratio)” value does the source give for A49U U82G U151G here?
Answer: ≤ -4.2

Question: For G50A, which “polymerase ribozyme fitness (log ratio)” value is on record?
Answer: -1.02

Question: With G50A A52C U55G G84U A107G G140A as the variant, how does the “polymerase ribozyme fitness (log ratio)” value read?
Answer: ≤ -4.2

Question: With G50A A52U A66C C85A as the variant, how does the “polymerase ribozyme fitness (log ratio)” value read?
Answer: ≤ -4.2

Question: For G50A A52U U78C C116A C149G, which “polymerase ribozyme fitness (log ratio)” value is on record?
Answer: ≤ -4.2

Question: For G50A A60C G62A C76U C96U G100U C108G, which “polymerase ribozyme fitness (log ratio)” value is on record?
Answer: ≤ -4.2

Question: For G50A A60C G86A, which “polymerase ribozyme fitness (log ratio)” value is on record?
Answer: -3.81

Question: Which “polymerase ribozyme fitness (log ratio)” value does the source give for G50A A64C C95G C114U here?
Answer: ≤ -4.2

Question: For G50A A64C G92A, which “polymerase ribozyme fitness (log ratio)” value is on record?
Answer: ≤ -4.2

Question: With G50A A66C C69G G84U G88A as the variant, how does the “polymerase ribozyme fitness (log ratio)” value read?
Answer: ≤ -4.2

Question: For G50A A66G, which “polymerase ribozyme fitness (log ratio)” value is on record?
Answer: -3.75

Question: Which “polymerase ribozyme fitness (log ratio)” value does the source give for G50A A66G U77A C96G U134G A137C here?
Answer: ≤ -4.2

Question: Which “polymerase ribozyme fitness (log ratio)” value does the source give for G50A A73U A113U here?
Answer: ≤ -4.2

Question: With G50A A73U C96G A98U A120U A137G as the variant, how does the “polymerase ribozyme fitness (log ratio)” value read?
Answer: ≤ -4.2

Question: Which “polymerase ribozyme fitness (log ratio)” value does the source give for G50A A91G C99U C103G here?
Answer: ≤ -4.2

Question: Which “polymerase ribozyme fitness (log ratio)” value does the source give for G50A A91U G126C here?
Answer: ≤ -4.2

Question: With G50A A98U G126A as the variant, how does the “polymerase ribozyme fitness (log ratio)” value read?
Answer: -1.26

Question: For G50A A120G A122U A150U, which “polymerase ribozyme fitness (log ratio)” value is on record?
Answer: -2.03

Question: With G50A C51U U55A C76A C105U C108G as the variant, how does the “polymerase ribozyme fitness (log ratio)” value read?
Answer: ≤ -4.2

Question: For G50A C51U U55A G84A C87A C93A C108U G140C U146C, which “polymerase ribozyme fitness (log ratio)” value is on record?
Answer: ≤ -4.2

Question: With G50A C54A C75U G86A A91C G136U as the variant, how does the “polymerase ribozyme fitness (log ratio)” value read?
Answer: ≤ -4.2

Question: With G50A C54G G86C A97U C108U as the variant, how does the “polymerase ribozyme fitness (log ratio)” value read?
Answer: ≤ -4.2

Question: Which “polymerase ribozyme fitness (log ratio)” value does the source give for G50A C54G U77G A97U A120G here?
Answer: ≤ -4.2

Question: For G50A C54U C57A G84U C103G G124C G133U G141C, which “polymerase ribozyme fitness (log ratio)” value is on record?
Answer: ≤ -4.2

Question: With G50A C54U C76A G83C A113C as the variant, how does the “polymerase ribozyme fitness (log ratio)” value read?
Answer: ≤ -4.2

Question: For G50A C54U C85U G92U U148A, which “polymerase ribozyme fitness (log ratio)” value is on record?
Answer: ≤ -4.2

Question: Which “polymerase ribozyme fitness (log ratio)” value does the source give for G50A C54U C93U C105G here?
Answer: ≤ -4.2

Question: Which “polymerase ribozyme fitness (log ratio)” value does the source give for G50A C57G A60C A91U C93G C114A here?
Answer: ≤ -4.2

Question: For G50A C57G G81A C85U C116U, which “polymerase ribozyme fitness (log ratio)” value is on record?
Answer: -2.31

Question: Which “polymerase ribozyme fitness (log ratio)” value does the source give for G50A C57U C76U C125U A142C U144G A150G here?
Answer: -3.98

Question: Which “polymerase ribozyme fitness (log ratio)” value does the source give for G50A C57U G74U C75G C87A A97C A150G here?
Answer: ≤ -4.2

Question: Which “polymerase ribozyme fitness (log ratio)” value does the source give for G50A C69G C85U U90C G100C here?
Answer: ≤ -4.2

Question: With G50A C69U G84U A98U A122G as the variant, how does the “polymerase ribozyme fitness (log ratio)” value read?
Answer: ≤ -4.2

Question: With G50A C72A C125U C132G as the variant, how does the “polymerase ribozyme fitness (log ratio)” value read?
Answer: ≤ -4.2

Question: For G50A C75A G83U C95U G126U, which “polymerase ribozyme fitness (log ratio)” value is on record?
Answer: ≤ -4.2

Question: With G50A C75U A91U A150C as the variant, how does the “polymerase ribozyme fitness (log ratio)” value read?
Answer: ≤ -4.2

Question: For G50A C75U C96A A97U, which “polymerase ribozyme fitness (log ratio)” value is on record?
Answer: ≤ -4.2

Question: With G50A C76A C96U as the variant, how does the “polymerase ribozyme fitness (log ratio)” value read?
Answer: -3.13

Question: Which “polymerase ribozyme fitness (log ratio)” value does the source give for G50A C76A G92A U101G G128U U130G here?
Answer: ≤ -4.2

Question: Which “polymerase ribozyme fitness (log ratio)” value does the source give for G50A C76A U82A G128A U139C here?
Answer: ≤ -4.2

Question: For G50A C76U C93U A98C, which “polymerase ribozyme fitness (log ratio)” value is on record?
Answer: -3.32

Question: With G50A C79A as the variant, how does the “polymerase ribozyme fitness (log ratio)” value read?
Answer: ≤ -4.2

Question: For G50A C79G C85U A107G, which “polymerase ribozyme fitness (log ratio)” value is on record?
Answer: ≤ -4.2

Question: For G50A C79G C103G, which “polymerase ribozyme fitness (log ratio)” value is on record?
Answer: ≤ -4.2

Question: For G50A C79U G94U C108U C132U, which “polymerase ribozyme fitness (log ratio)” value is on record?
Answer: ≤ -4.2
